PubChem BioAssay AID1768 (National Center for Advancing Translational Sciences (NCATS), 2009)
Hit rate of the full screen: of about 270,000 compounds, about 620 (0.23%) were called active. This list was built around the results that the source calls inconclusive (neither active nor inactive); the mix of calls is not that of the screen. Calls come from the whole dose curve; as a rule, active = well fitted inhibition curve with a large enough effect in the polarisation, with a control signal flat (not every such curve was filed as active); inconclusive = small, poorly fitted or top-dose-only effect, or effect the other way, or a change in a side signal; inactive = no such curve, though single readings can be large or run the other way; the % refers to the polarisation. Potencies of inconclusive entries are doubtful fits and often do not repeat. “Side channel” marks fits to a control or component signal instead of the main read-out.

What follows are compounds tested against Menin (Homo sapiens) (UniProt O00255) (assay: qHTS Assay for Inhibitors Targeting the Menin-MLL Interaction in MLL Related Leukemias: Competition With Texas Red Labeled MLL-derived Mutant Peptide). Details: fluorescence polarization; FP activity change, negative = inhibition: at 61.6 µM (top of the series).
UniProt O00255, sequence (O00255 whole entry, looked up): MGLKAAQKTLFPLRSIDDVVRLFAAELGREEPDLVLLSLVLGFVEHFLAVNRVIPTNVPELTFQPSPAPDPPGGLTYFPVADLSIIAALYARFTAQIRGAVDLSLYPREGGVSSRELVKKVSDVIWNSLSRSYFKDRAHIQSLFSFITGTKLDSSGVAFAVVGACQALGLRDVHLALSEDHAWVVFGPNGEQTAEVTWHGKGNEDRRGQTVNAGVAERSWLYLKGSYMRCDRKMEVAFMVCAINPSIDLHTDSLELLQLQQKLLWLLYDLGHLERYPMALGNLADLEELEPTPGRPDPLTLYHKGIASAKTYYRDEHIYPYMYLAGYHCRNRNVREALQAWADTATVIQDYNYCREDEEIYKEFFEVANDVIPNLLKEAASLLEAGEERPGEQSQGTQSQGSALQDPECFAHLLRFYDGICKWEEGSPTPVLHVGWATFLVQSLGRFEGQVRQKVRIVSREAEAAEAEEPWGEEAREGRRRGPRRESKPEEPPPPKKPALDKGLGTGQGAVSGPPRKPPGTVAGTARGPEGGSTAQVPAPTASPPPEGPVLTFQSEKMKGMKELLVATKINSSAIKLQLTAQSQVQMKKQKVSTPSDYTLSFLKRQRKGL
Potency is the fitted concentration of half-maximal effect; tags give direction and shape of the fitted curve or compound fluorescence and quenching.
Throughout, for FP activity change, negative = inhibition: % of control where 0% means no effect.

Row | Structure (SMILES) | Potency | FP activity change, negative = inhibition
1 | CC(=O)c1ccc(NC(=O)Cn2cnc(S(=O)(=O)N3CCc4ccccc43)c2)cc1 | inconclusive: 39.8 µM [inhibitor, single point] | 
2 | COc1ccc(OCc2nnnn2-c2ccccc2)cc1 |  | inactive: -9.61%
3 | NC(N)=NC(=O)c1nc(Cl)c(N2CCCCCC2)nc1N | inconclusive: 15.8 µM [fluorescent, side channel, partial curve] | 
4 | COC(=O)/C(=C(/F)Sc1cc(C)c(O)c(C)c1)C(F)(F)F | inconclusive: 28.2 µM [quencher, side channel, partial curve] | 
5 | O=C(N/N=C/c1ccc([N+](=O)[O-])s1)C(O)c1ccccc1 (configuration not stated) | inconclusive: 22.4 µM [quencher, side channel, single point] | 
6 | C=CCn1c(NC(=O)c2ccc(Br)o2)c(C(=O)OCC)sc1=S | inconclusive: 25.1 µM [quencher, side channel, partial curve] | 
7 | CCOC(=O)C1=C(C)NC(=O)CC1c1cc2c(cc1[N+](=O)[O-])OCO2 (configuration not stated) | inconclusive: 25.1 µM [quencher, side channel, partial curve] | 
8 | COc1ccccc1CN1CCN(Cc2nc(-c3cccs3)no2)CC1 | inconclusive: 31.6 µM [fluorescent, side channel, single point] | 
9 | O=C(CCN1C(=O)S/C(=C\c2cccs2)C1=O)Nc1nccs1 | inconclusive: 7.94 µM [inhibitor, full curve] | 
10 | O=C(Cc1ccc(S(=O)(=O)N2CCOCC2)s1)Nc1ccc2c(c1)CCC2 | inconclusive: 25.1 µM [quencher, side channel, partial curve] | 
11 | O=C(COC(=O)CCCc1c[nH]c2ccccc12)Nc1ccc2c(c1)OCO2 | inconclusive: 22.4 µM [quencher, side channel, single point] | 
12 | O=C(CCn1c(=O)oc2ccccc21)NCCCN1CCN(c2ccc(F)cc2)CC1 | inconclusive: 20 µM [inhibitor, single point] | 
13 | CN1CCN(c2ncnc3c2c(-c2ccccc2)cn3-c2ccc(F)cc2)CC1 | inconclusive: 17.8 µM [inhibitor, partial curve] | 
14 | COc1ccc(NC(=O)CC2Oc3ccccc3NC2=O)c(OC)c1 (configuration not stated) | inconclusive: 35.5 µM [fluorescent, partial curve] | 
15 | Cc1oc2ccc(NS(=O)(=O)c3ccc(C(C)(C)C)cc3)cc2c1C(=O)Nc1ccccc1 | inconclusive: 1.78 µM [quencher, side channel, full curve, poor fit] | 
16 | Cc1cc2[nH]c(=O)c(=O)[nH]c2cc1S(=O)(=O)Nc1cccc(Cl)c1C |  | inactive: -1.9%
17 | O=C(Cc1coc2cc3c(cc12)CCC3)OCc1cc(=O)n2c(n1)sc1ccccc12 | inconclusive: 14.1 µM [quencher, side channel, partial curve] | 
18 | O=C(O)CCCN1C(=O)/C(=C\c2ccco2)SC1=S | inconclusive: 31.6 µM [fluorescent, side channel, partial curve] | 
19 | O=C(NN1C(=O)C2C(c3ccccc3)C=CC(c3ccccc3)C2C1=O)c1cccc(Br)c1 (configuration not stated) | inconclusive: 7.94 µM [quencher, side channel, full curve] | 

Row | Structure (SMILES) | Potency | FP activity change, negative = inhibition
20 | CC(C)c1cc(Nc2cccc(O)c2)cc(C(C)C)c1O | inconclusive: 15.8 µM [quencher, partial curve] | 
21 | O=c1cnc2cnc(Oc3cccc(Cl)c3)nc2n1CCc1ccccc1 | inconclusive: 8.91 µM [fluorescent, side channel, partial curve] | 
22 | Cc1cc(C)nc(SCc2c(F)cccc2Cl)n1 | inconclusive: 39.8 µM [fluorescent, side channel, single point] | 
23 | C/C(=N\NC(=S)NCc1ccccc1)c1ccc(C#N)cc1 | inconclusive: 25.1 µM [quencher, side channel, single point] | 
24 | Cc1ccc(C)c(NC(=S)NC(NC(=O)Cc2cccc3ccccc23)C(Cl)(Cl)Cl)c1 (configuration not stated) | inconclusive: 20 µM [fluorescent, side channel, single point] | 
25 | O=C(Nc1ccc(O)c(-c2nc3ccccc3s2)c1)c1cccs1 | inconclusive: 6.31 µM [quencher, side channel, full curve] | 
26 | CCOC(=O)c1ccccc1NC(=O)[C@@H]1CCCN1C(=O)OC(C)(C)C | inconclusive: 3.16 µM [inhibitor, full curve, poor fit] | 
27 | NS(=O)(=O)c1ccc(N=Nc2c(O)ccc3ccccc23)cc1 | inconclusive: 12.6 µM [quencher, side channel, partial curve] | 
28 | COc1ccc(-c2cc(C(F)(F)F)nc(SCC(=O)Nc3cc(C)on3)n2)cc1OC |  | inactive: 11.4%
29 | O=C(Cc1ccccc1)Nc1ccc(NC(=O)c2ccco2)cc1 | inconclusive: 35.5 µM [inhibitor, single point] | 
30 | CCOC(=O)N1CCN(c2nc(-c3ccccc3)c3cc(C)ccc3n2)CC1 | inconclusive: 3.98 µM [fluorescent, side channel, full curve, poor fit] | 
31 | CCOc1ccc(C(=O)Nc2cc(NC(=O)c3ccc(OCC)c(Cl)c3)cc(C(=O)O)c2)cc1Cl | inconclusive: 20 µM [quencher, side channel, partial curve] | 
32 | CC(C)c1ccc(Nc2nnc(SCC(=O)c3nnc(-c4ccccc4)o3)s2)cc1 | inconclusive: 10 µM [quencher, side channel, partial curve] | 
33 | O=C(O)CCNc1ccc2c(c1)OCCO2 | inconclusive: 25.1 µM [inhibitor, partial curve] | 
34 | C/C(=N\Nc1ccc(S(=O)(=O)Nc2ccccc2)cc1[N+](=O)[O-])c1ccncc1 | inconclusive: 14.1 µM [quencher, side channel, partial curve] | 
35 | CCCCN(C(=O)NC(=O)Nc1nc2ccc(OC)cc2s1)S(C)(=O)=O | inconclusive: 0.708 µM [inhibitor, full curve, poor fit] | 
36 | NC(=NCCCCCCN=C(N)/N=C(\N)Nc1ccc(Cl)cc1)/N=C(\N)Nc1ccc(Cl)cc1 | inconclusive: 14.1 µM [inhibitor, partial curve] | 
37 | O=C(Nc1ccc(C2=NCCN2)cc1)c1ccc(Cl)c(C(=O)Nc2ccc(C3=NCCN3)cc2)c1 |  | inactive: -20.4%
38 | Cc1cc(C)n2nc(N)c(N=Nc3ccc(Cl)cc3)c2n1 | inconclusive: 35.5 µM [quencher, side channel, single point] | 

Row | Structure (SMILES) | Potency | FP activity change, negative = inhibition
39 | Cc1ccc(C)c(N2CCN(C(=O)c3cc4c(C)nc5ccccc5c4o3)CC2)c1 | inconclusive: 3.16 µM [fluorescent, side channel, full curve, poor fit] | 
40 | CC(C)(C)C(=O)C(Oc1ccc(Cl)cc1)n1ccnc1 (configuration not stated) |  | inactive: -9.54%
41 | CCOC(CNC(=O)c1cc2c(=O)n(CC)c3ccccc3c2s1)OCC | inconclusive: 25.1 µM [inhibitor, partial curve] | 
42 | Cc1ccc(Nc2nc(-c3ccc(C)cc3)c(CC(=O)O)s2)cc1 | inconclusive: 28.2 µM [quencher, single point] | 
43 | O=C(Nc1ccc(NC(=O)c2cc3ccccc3o2)cc1)c1ccco1 | inconclusive: 39.8 µM [fluorescent, side channel, single point] | 
44 | CCOc1ccccc1NC(=O)C(NCC1(N2CCCCC2)CCCCC1)c1ccccc1 (configuration not stated) | inconclusive: 31.6 µM [inhibitor, partial curve] | 
45 | CCCCCCCCNC(=O)CCNC(=O)c1ccc(C(C)(C)C)cc1 | inconclusive: 31.6 µM [fluorescent, side channel, partial curve] | 
46 | Clc1ccc(-c2nc3nc4ccccc4nc3n2Cc2ccco2)cc1 | inconclusive: 22.4 µM [quencher, side channel, single point] | 
47 | CC(=O)N1CCC[C@@]2(CCN(Cc3ccc(C#N)cc3)C2)C1 |  | inactive: 11.1%
48 | COc1ccc(C(=O)Nc2nc(-c3cccs3)cs2)cc1 | inconclusive: 20 µM [quencher, side channel, partial curve] | 
49 | CSc1nc2ccccc2c(=O)n1C1CCOC(C)(C)C1 (configuration not stated) | inconclusive: 4.47 µM [fluorescent, side channel, full curve, poor fit] | 
50 | COc1cc(C(=O)OCC(=O)Nc2ccc(SC(F)F)cc2)cc(OC)c1OC | inconclusive: 3.16 µM [quencher, side channel, single point] | 
51 | O=C1N(Cc2cccc(Cl)c2)C[C@@H]2C[C@@H](c3ccco3)N3CCC[C@@]123 | inconclusive: 10 µM [fluorescent, side channel, partial curve] | 
52 | CCOC(=O)c1ccc2c(c1)nc(SCC(=O)c1cc3ccccc3o1)n2CC | inconclusive: 25.1 µM [inhibitor, single point] | 
53 | C=CCc1cccc(/C=N/NC(=O)C(C)Nc2cccc(C)c2)c1O (configuration not stated) | inconclusive: 20 µM [quencher, side channel, partial curve] | 
54 | CCN(CC)C(c1ccc(F)cc1)c1nnnn1C1CCCCC1 (configuration not stated) | inconclusive: 7.08 µM [fluorescent, side channel, partial curve] | 
55 | COc1cccc(-c2nnc(NC(=O)C3CCCCC3)o2)c1 |  | inactive: 1.52%
56 | COc1ccc(S(=O)(=O)Oc2cccc(/C=N/N=C3/NC(=O)C(CC(=O)O)S3)c2)cc1 (configuration not stated) | inconclusive: 14.1 µM [quencher, side channel, partial curve] | 
57 | CCN(CC)C(=O)NC(c1ccc(C)c(F)c1)C(Cl)(Cl)Cl (configuration not stated) | inconclusive: 35.5 µM [fluorescent, side channel, single point] | 
